The text below walks through data of article PMC11995724, “Antibiotic target discovery by integrated phenotypic and activity-based profiling of electrophilic fragments” (Cell chemical biology, 2025).

The whole screen tested about 3,200 compounds, of which about 110 (3.4%) showed an effect of 50% or more. Some of the results follow.

In the experiment the test system is T1, V. cholerae SAD30.
T1 construct: SAD30
Further details: species or system S. aureus MSSA476 (TSB) or V. cholerae SAD30 (LB); 384-well bacterial growth screen at 25 uM, OD600 relative to DMSO control. Particulars: relative growth, OD600, LB; 25 µM; inhibitor.
Take `O=C(CCl)NCCOc1ccc2ccccc2c1` [6-A14, 2-chloro-N-[2-(naphthalen-2-yloxy)ethyl]acetamide]: the “% of control remaining” value stood at 97.9809%.
The result for `Cc1cc(=O)[nH]c(-c2cccc(NC(=O)C(C#N)=Cc3ccco3)c2)n1` [8-B10, 2-cyano-3-(furan-2-yl)-N-[3-(4-methyl-6-oxo-1,6-dihydropyrimidin-2-yl)phenyl]prop-2-enamide] reads 79.4697%.
The figure for `CC(C)NC(=O)C(C#N)=Cc1ccc(C(F)(F)F)cc1` [8-L13, 2-cyano-N-(propan-2-yl)-3-[4-(trifluoromethyl)phenyl]prop-2-enamide] is 68.3209%; for `COC(=O)c1ccc2[nH]cc(C(=O)CCl)c2c1` [10-D05, methyl 3-(2-chloroacetyl)-1H-indole-5-carboxylate] it is 99.1233%; for `CC(C)NC(=O)C(C#N)=Cc1cccc(C(F)(F)F)c1` [9-J13, 2-cyano-N-(propan-2-yl)-3-[3-(trifluoromethyl)phenyl]prop-2-enamide] it is 88.7152%.
Turning to `N#CC(=Cc1ccco1)C(=O)Nc1ccc2nc(S)oc2c1` [9-E16, 2-cyano-3-(furan-2-yl)-N-(2-sulfanyl-1,3-benzoxazol-6-yl)prop-2-enamide], the “% of control remaining” value is 84.7723%.
Take `C=CC(=O)NCC1OCCc2sc(F)cc21` (stereo not drawn) [2-P09, N-({2-fluoro-4H,6H,7H-thieno[3,2-c]pyran-4-yl}methyl)prop-2-enamide]: the “% of control remaining” value is given as 100.54%.
The figure for `C=CC(=O)NC[C@@H]1C=C[C@H]2C[C@@H]1CO2` (racemic) [1-I03, rac-N-{[(1R,2S,5S)-6-oxabicyclo[3.2.1]oct-3-en-2-yl]methyl}prop-2-enamide] is 99.1031%; for `CC(Cl)C(=O)N(C)Cc1nccn1Cc1ccccc1` (stereo not drawn) [6-J09, N-[(1-benzyl-1H-imidazol-2-yl)methyl]-2-chloro-N-methylpropanamide] it is 93.1273%; for `C=CC(=O)N(CC)CC(=O)N1CCCC(N2CCCS2(=O)=O)C1` (stereo not drawn) [3-I08, N-{2-[3-(1,1-dioxo-1lambda6,2-thiazolidin-2-yl)piperidin-1-yl]-2-oxoethyl}-N-ethylprop-2-enamide] it is 95.2656%.
The result for `CS(=O)(=O)c1ccc(C(=O)CCl)cc1` [10-I13, 2-chloro-1-(4-methanesulfonylphenyl)ethan-1-one] reads 0%; that for `C=CC(=O)N1CCC(C(=O)N2CCCC(O)C2)(c2ccccc2)CC1` (stereo not drawn) [2-P06, 1-[4-(3-hydroxypiperidine-1-carbonyl)-4-phenylpiperidin-1-yl]prop-2-en-1-one], 94.6734%.
The figure for `Cc1cc(C=C2CCN(C(=O)C(C)Cl)CC2)no1` (stereo not drawn) [6-N03, 2-chloro-1-{4-[(5-methyl-1,2-oxazol-3-yl)methylidene]piperidin-1-yl}propan-1-one] is 102.531%; for `C=CC(=O)N1CCN(C(=O)c2ccco2)CC1` [1-P11, 1-[4-(furan-2-carbonyl)piperazin-1-yl]prop-2-en-1-one] it is 101.345%; for `Cc1ccc2sc(N(Cc3ccccc3)C(=O)CCl)nc2c1C` [4-K06, N-benzyl-2-chloro-N-(4,5-dimethyl-1,3-benzothiazol-2-yl)acetamide] it is 100.927%.
For the molecule `C=CC(=O)N1CCN(Cc2nc(C(C)C)no2)CC1` [3-G11, 1-(4-{[3-(propan-2-yl)-1,2,4-oxadiazol-5-yl]methyl}piperazin-1-yl)prop-2-en-1-one], the “% of control remaining” value turned out to be 93.5012%.
The figure for `C=CC(=O)Nc1cc(S(=O)(=O)N(C)C)cc(C)c1C` [1-K11, N-[5-(dimethylsulfamoyl)-2,3-dimethylphenyl]prop-2-enamide] is 84.006%.
The result for `N#CC(=Cc1cccc(O)c1)C(=O)NCc1ccc(Cl)cc1` [8-P14, N-[(4-chlorophenyl)methyl]-2-cyano-3-(3-hydroxyphenyl)prop-2-enamide] reads 72.9436%; that for `CC(Cl)C(=O)Nc1sc(-c2ccccc2)cc1C(N)=O` (stereo not drawn) [4-H13, 2-(2-chloropropanamido)-5-phenylthiophene-3-carboxamide], 77.6364%.
As for `C=CC(=O)N(C)Cc1nnc(C2CC2)n1C` [2-H11, N-[(5-cyclopropyl-4-methyl-4H-1,2,4-triazol-3-yl)methyl]-N-methylprop-2-enamide], the “% of control remaining” value turned out to be 90.5047%.
The result for `C=CCNC(=O)C(C#N)=Cc1ccc(-c2ccc(F)cc2)o1` [8-L20, 2-cyano-3-[5-(4-fluorophenyl)furan-2-yl]-N-(prop-2-en-1-yl)prop-2-enamide] reads 70.3603%.
The figure for `Cc1ccc(C=C(C#N)C(=O)N2CCCC2)cc1` [8-E17, 3-(4-methylphenyl)-2-(pyrrolidine-1-carbonyl)prop-2-enenitrile] is 68.8647%; for `COc1ccc(N(CC(F)(F)F)C(=O)CCl)cc1` [4-C15, 2-chloro-N-(4-methoxyphenyl)-N-(2,2,2-trifluoroethyl)acetamide] it is 101.1%.
The result for `C=CC(=O)N1CCC(C(=O)NC(C)c2cccc(C(F)(F)F)c2)CC1` (stereo not drawn) [3-G13, 1-(prop-2-enoyl)-N-{1-[3-(trifluoromethyl)phenyl]ethyl}piperidine-4-carboxamide] reads 76.3867%.
As to `CC(C)CN(C(=O)CCl)c1cnn(-c2ccccn2)c1` [5-A12, 2-chloro-N-(2-methylpropyl)-N-[1-(pyridin-2-yl)-1H-pyrazol-4-yl]acetamide], the “% of control remaining” value is on record as 93.8111%.
The result for `C=CC(=O)N(CC)CC(=O)N1CCc2[nH]nc(C(F)(F)F)c2C1` [3-A14, N-ethyl-N-{2-oxo-2-[3-(trifluoromethyl)-1H,4H,5H,6H,7H-pyrazolo[4,3-c]pyridin-5-yl]ethyl}prop-2-enamide] reads 113.086%; that for `Cn1nccc1CN1C[C@@H](F)C[C@H]1CNC(=O)CCl` [5-C04, 2-chloro-N-{[(2S,4S)-4-fluoro-1-[(1-methyl-1H-pyrazol-5-yl)methyl]pyrrolidin-2-yl]methyl}acetamide], 104.571%.
